Test [1] concerns the target T1, PCDH19-HA-FLAG (Protocadherin 19, endogenous in Pcdh19-HA-FLAG mice) (mouse (endogenous in mouse brain)) (UniProt Q80TF3).
T1 sequence: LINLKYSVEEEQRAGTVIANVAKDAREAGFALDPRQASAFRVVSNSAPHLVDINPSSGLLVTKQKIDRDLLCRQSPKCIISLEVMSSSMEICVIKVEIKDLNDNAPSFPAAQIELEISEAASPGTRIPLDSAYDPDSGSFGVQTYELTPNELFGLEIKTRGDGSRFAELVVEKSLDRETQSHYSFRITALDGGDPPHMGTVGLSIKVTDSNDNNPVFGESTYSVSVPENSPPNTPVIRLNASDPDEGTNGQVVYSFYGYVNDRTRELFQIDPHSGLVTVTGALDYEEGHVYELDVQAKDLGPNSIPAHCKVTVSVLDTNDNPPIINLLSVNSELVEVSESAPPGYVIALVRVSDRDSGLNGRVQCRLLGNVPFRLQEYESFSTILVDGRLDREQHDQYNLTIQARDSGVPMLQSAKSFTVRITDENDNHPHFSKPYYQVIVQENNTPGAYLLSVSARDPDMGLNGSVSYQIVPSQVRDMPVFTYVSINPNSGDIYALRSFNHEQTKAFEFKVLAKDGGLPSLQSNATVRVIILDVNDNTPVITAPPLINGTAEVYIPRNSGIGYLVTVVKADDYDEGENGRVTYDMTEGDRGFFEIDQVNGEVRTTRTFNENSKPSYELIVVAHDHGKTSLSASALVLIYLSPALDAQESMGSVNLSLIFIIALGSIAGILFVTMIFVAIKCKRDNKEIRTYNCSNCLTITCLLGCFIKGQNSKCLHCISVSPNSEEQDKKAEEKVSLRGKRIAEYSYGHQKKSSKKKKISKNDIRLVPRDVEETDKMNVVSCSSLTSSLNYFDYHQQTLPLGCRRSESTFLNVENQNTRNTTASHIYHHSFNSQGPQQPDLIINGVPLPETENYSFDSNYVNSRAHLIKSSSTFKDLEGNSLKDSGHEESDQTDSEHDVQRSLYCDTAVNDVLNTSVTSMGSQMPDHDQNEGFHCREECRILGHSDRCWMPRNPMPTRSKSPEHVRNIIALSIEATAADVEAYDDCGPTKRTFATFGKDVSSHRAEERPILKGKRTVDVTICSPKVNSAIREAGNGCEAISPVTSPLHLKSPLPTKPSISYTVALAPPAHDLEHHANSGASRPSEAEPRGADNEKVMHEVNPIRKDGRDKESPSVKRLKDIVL
Nature of the test: co-IP; anti-FLAG IP of PCDH19-HA-FLAG from mouse hippocampus/cortex lysate of Experiment 2, western blot for PCDH19 and N-cadherin (Supplementary Fig. 2). Background: In western blotting, separated proteins are transferred to a membrane and probed.

Amino acid sequences for entries named in this document (tags omitted). Residues count along the entry.
UniProt P15116, residues 160-906: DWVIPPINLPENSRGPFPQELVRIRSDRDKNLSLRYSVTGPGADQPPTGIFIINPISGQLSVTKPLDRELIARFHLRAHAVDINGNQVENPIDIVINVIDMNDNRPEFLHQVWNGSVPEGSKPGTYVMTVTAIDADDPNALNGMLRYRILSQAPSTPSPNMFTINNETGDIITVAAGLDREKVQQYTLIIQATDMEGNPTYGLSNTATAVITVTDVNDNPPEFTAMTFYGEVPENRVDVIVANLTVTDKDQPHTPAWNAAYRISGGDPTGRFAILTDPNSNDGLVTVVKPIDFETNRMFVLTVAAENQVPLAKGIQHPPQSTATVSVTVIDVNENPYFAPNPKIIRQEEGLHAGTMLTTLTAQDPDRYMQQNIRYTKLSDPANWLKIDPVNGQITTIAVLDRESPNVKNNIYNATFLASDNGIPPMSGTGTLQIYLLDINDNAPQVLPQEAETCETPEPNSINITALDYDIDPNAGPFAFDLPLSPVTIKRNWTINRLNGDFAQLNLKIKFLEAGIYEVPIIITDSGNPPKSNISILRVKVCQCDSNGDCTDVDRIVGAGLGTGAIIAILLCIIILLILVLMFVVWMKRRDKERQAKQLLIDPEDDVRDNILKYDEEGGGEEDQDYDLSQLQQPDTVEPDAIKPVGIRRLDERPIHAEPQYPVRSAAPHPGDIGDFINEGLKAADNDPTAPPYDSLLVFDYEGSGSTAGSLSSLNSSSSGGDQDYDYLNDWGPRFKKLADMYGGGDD
UniProt Q02248: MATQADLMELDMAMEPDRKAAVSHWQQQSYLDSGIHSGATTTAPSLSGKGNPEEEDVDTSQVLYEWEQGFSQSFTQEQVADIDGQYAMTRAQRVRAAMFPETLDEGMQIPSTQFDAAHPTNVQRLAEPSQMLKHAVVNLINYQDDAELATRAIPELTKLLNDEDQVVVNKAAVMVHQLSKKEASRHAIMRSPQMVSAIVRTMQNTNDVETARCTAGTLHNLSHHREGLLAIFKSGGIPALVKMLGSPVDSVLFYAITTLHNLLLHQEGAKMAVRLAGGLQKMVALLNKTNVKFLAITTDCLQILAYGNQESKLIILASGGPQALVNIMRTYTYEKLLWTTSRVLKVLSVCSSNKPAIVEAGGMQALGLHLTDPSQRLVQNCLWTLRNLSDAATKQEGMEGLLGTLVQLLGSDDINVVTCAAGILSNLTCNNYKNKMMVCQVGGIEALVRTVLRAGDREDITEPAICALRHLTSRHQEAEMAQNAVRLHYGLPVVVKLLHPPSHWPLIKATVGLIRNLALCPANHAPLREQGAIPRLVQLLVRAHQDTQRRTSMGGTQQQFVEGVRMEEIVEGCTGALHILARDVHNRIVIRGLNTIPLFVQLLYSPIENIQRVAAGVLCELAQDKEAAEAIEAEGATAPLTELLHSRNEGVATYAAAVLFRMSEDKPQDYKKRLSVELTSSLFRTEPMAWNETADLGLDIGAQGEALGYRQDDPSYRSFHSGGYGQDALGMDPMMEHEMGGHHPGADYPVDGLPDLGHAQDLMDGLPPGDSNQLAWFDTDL

In test [2] the target is T1, PCDH19-HA-FLAG (Protocadherin 19, endogenous in Pcdh19-HA-FLAG mice) (mouse (endogenous in mouse brain)). Nature of the test: co-IP; PCDH19-HA-FLAG precipitated with anti-FLAG M2 or mouse IgG affinity gel from P5-6 mouse cortex/hippocampus lysate, overnight 4 °C; washes with 0.1% SDS in Wash Buffer; western blot with anti-PCDH19 and anti-β-catenin.
For test [3], the target named is T2, PCDH12 (pCMV-PCDH12-Myc/HA) (UniProt Q9NPG4).
T2 sequence: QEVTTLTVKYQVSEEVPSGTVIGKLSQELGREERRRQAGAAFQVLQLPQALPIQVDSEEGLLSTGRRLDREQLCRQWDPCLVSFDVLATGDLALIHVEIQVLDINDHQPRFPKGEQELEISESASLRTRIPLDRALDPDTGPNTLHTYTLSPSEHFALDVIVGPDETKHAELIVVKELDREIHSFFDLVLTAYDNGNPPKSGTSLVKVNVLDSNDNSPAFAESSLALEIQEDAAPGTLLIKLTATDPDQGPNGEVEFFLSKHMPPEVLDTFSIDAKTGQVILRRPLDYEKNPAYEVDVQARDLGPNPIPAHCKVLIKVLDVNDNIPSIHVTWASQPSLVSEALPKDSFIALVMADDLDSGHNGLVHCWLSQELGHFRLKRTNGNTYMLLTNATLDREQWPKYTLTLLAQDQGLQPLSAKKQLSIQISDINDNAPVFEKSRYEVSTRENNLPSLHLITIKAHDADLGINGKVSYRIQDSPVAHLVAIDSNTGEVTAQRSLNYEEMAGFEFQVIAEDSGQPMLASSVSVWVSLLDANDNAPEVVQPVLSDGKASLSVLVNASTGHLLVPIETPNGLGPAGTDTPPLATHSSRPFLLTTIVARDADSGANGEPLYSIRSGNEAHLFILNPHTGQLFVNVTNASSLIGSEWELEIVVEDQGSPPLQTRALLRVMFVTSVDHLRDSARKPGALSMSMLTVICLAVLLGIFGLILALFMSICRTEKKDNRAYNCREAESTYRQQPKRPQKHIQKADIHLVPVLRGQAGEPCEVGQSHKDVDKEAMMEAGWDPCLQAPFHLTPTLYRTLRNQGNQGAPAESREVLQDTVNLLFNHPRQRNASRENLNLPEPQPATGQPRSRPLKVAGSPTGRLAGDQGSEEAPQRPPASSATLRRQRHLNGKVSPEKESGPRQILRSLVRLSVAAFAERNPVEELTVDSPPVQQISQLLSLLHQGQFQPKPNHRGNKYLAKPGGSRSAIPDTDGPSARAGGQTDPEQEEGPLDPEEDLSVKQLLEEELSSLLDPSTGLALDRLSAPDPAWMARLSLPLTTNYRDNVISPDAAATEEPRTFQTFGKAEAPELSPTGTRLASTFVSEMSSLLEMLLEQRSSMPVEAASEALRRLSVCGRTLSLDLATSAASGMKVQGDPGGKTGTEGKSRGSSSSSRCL
Nature of the test: co-IP; HEK293T transfected with epitope tagged CAPZA1, αN-catenin or β-catenin and PCDH10 or PCDH12; IP buffer; anti-c-Myc, anti-HA or anti-FLAG beads overnight at 4 °C; western blot.

Test [4] concerns the target T3, PCDH10 (pCMV-PCDH10-Myc/HA) (UniProt Q9P2E7).
T3 sequence: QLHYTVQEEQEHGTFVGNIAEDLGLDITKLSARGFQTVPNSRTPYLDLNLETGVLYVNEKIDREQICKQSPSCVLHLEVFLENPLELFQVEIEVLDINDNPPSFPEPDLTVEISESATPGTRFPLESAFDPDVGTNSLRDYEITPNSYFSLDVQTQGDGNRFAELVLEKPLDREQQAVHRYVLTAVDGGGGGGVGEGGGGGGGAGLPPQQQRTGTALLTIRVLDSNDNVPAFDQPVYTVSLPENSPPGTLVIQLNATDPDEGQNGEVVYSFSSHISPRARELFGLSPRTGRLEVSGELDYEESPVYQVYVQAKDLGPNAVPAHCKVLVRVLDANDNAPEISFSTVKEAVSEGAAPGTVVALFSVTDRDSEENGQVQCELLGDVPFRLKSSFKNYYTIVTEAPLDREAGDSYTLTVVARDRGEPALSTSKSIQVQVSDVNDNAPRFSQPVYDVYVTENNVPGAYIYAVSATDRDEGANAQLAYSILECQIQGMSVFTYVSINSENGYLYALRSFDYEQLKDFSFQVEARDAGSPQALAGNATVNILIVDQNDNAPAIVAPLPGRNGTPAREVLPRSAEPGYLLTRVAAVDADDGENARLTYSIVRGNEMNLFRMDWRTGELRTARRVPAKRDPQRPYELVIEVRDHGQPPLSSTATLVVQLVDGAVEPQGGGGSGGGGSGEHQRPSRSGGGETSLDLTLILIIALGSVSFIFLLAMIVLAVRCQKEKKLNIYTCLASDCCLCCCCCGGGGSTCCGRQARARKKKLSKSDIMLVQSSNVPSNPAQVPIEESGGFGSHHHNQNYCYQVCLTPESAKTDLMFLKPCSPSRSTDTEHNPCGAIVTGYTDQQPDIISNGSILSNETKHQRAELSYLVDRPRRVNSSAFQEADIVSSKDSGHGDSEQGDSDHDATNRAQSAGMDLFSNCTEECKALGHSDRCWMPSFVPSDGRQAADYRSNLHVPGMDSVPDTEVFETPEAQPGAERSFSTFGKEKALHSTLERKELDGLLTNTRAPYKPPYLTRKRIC
The test is described as above.

The target of test [5] is T4, Myc-PCDH19-FLAG full length (FL), isoform with Exon 2 (+Ex2) (human) (UniProt Q8TAB3).
T4 sequence: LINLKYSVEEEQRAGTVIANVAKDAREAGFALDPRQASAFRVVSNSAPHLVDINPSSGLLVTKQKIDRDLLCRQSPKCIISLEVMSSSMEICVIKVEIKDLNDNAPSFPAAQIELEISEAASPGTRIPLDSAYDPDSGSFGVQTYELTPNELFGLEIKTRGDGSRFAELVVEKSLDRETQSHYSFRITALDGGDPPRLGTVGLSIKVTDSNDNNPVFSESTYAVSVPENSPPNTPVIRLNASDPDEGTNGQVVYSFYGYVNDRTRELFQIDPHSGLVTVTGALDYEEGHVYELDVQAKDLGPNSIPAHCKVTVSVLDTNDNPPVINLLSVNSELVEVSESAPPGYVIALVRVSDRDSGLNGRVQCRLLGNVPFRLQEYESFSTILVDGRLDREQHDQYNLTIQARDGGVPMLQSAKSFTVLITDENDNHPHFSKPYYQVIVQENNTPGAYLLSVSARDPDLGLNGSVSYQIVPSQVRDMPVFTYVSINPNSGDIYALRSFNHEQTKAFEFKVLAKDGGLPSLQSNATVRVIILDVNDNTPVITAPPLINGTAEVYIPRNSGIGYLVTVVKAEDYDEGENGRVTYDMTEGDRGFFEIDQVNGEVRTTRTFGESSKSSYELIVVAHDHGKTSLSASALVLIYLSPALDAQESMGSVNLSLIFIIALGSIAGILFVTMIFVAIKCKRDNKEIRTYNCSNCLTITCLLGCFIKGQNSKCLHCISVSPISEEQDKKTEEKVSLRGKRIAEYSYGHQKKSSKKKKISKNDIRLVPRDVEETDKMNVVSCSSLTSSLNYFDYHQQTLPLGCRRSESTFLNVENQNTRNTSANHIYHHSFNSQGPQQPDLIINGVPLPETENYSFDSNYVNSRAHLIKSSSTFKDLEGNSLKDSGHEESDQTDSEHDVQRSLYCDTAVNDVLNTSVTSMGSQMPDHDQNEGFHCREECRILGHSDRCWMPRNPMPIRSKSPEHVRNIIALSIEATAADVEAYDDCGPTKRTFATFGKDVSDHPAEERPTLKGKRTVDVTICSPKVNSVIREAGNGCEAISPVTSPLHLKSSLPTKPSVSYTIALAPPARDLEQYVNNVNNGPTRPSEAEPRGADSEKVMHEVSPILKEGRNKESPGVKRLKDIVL
Nature of the test: co-IP; HEK293T transfected with tagged constructs, lysed in IP buffer; Myc-PCDH19-FLAG precipitated with anti-FLAG agarose beads overnight at 4 °C; western blot for the HA-tagged partner.

These are yes or no findings as the source states them, for the method shown. In cells and extracts the contact can be indirect. Some binding calls cover weakened binding; strength is not graded here. Where a sequence is shown, tags or fusion partners need not be part of it.

As for “N-cadherin (mouse, endogenous) (from UniProt P15116 160-906)”, the binding entry in test [1] is given as “binds”. On to “β-catenin (mouse, endogenous) (from UniProt Q02248 1-781)”, for which the binding entry in test [2] is listed as “binds”.

B1: αN-catenin-HA (CTNNA2, human) (protein, UniProt P26232 1-953)
chain: MTSATSPIILKWDPKSLEIRTLTVERLLEPLVTQVTTLVNTSNKGPSGKKKGRSKKAHVLAASVEQATQNFLEKGEQIAKESQDLKEELVAAVEDVRKQGETMRIASSEFADDPCSSVKRGTMVRAARALLSAVTRLLILADMADVMRLLSHLKIVEEALEAVKNATNEQDLANRFKEFGKEMVKLNYVAARRQQELKDPHCRDEMAAARGALKKNATMLYTASQAFLRHPDVAATRANRDYVFKQVQEAIAGISNAAQATSPTDEAKGHTGIGELAAALNEFDNKIILDPMTFSEARFRPSLEERLESIISGAALMADSSCTRDDRRERIVAECNAVRQALQDLLSEYMNNTGRKEKGDPLNIAIDKMTKKTRDLRRQLRKAVMDHISDSFLETNVPLLVLIEAAKSGNEKEVKEYAQVFREHANKLVEVANLACSISNNEEGVKLVRMAATQIDSLCPQVINAALTLAARPQSKVAQDNMDVFKDQWEKQVRVLTEAVDDITSVDDFLSVSENHILEDVNKCVIALQEGDVDTLDRTAGAIRGRAARVIHIINAEMENYEAGVYTEKVLEATKLLSETVMPRFAEQVEVAIEALSANVPQPFEENEFIDASRLVYDGVRDIRKAVLMIRTPEELEDDSDFEQEDYDVRSRTSVQTEDDQLIAGQSARAIMAQLPQEEKAKIAEQVEIFHQEKSKLDAEVAKWDDSGNDIIVLAKQMCMIMMEMTDFTRGKGPLKNTSDVINAAKKIAEAGSRMDKLARAVADQCPDSACKQDLLAYLQRIALYCHQLNICSKVKAEVQNLGGELIVSGTGVQSTFTTFYEVDCDVIDGGRASQLSTHLPTCAEGAPIGSGSSDSSMLDSATSLIQAAKNLMNAVVLTVKASYVASTKYQKVYGTAAVNSPVVSWKMKAPEKKPLVKREKPEEFQTRVRRGSQKKHISPVQALSEFKAMDSF
As for B1, the binding result in test [3] is reported as “no binding”; in test [4] it was “no binding”; in test [5], “binds”.

For the origin of these results see publication PMC11408250.
